# Experimental data published in the supplement of paper PMC4967469.
# Assays:
# Assay in all cases: Viability of human cancer cell lines after 72 h of drug (GDSC screen)
# Olaparib = compound: O=C(c1cc(Cc2n[nH]c(=O)c3ccccc23)ccc1F)N1CCN(C(=O)C2CC2)CC1 [Olaparib]
# Protocol: (§1)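 Human cancer cell lines in 384-well plates, medium with 10% serum, drug for 72 h over a 256-fold dose range (nine 2-fold or five 4-fold steps up to the top dose). Adherent lines were fixed and stained with the nucleic acid dye Syto60, suspension lines read with resazurin; signal relative to control wells, capped at 0 and 100%. One two-parameter sigmoid per drug and line, fitted in a mixed model over all curves with the slope shared within a line.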
# Shikonin = compound: CC(C)=CC[C@@H](O)C1=CC(=O)c2c(O)ccc(O)c2C1=O [Shikonin]; settings: top dose 16 µM; top dose inferred
# Protocol: as §1
# SB-525334 = compound: Cc1cccc(-c2[nH]c(C(C)(C)C)nc2-c2ccc3nccnc3c2)n1 [SB-525334]; settings: top dose 20 µM; top dose inferred
# Protocol: as §1
# BIRB 0796 = compound: Cc1ccc(-n2nc(C(C)(C)C)cc2NC(=O)Nc2ccc(OCCN3CCOCC3)c3ccccc23)cc1 [BIRB 0796]; settings: top dose 10 µM; top dose inferred
# Protocol: as §1
# Wee1 inhibitor 681640 = compound: O=C1NC(=O)c2c1c(-c1ccccc1Cl)cc1[nH]c3ccc(O)cc3c21 [Wee1 inhibitor 681640]; settings: top dose 2 µM; top dose inferred
# Protocol: as §1
# HG-5-113-01 = compound: CNC(=O)c1ccc(Nc2cc(Nc3ccccc3S(=O)(=O)C(C)C)c3cc[nH]c3n2)nc1 [HG-5-113-01]; settings: top dose 10 µM; top dose inferred
# Protocol: as §1
# VX-702 = compound: NC(=O)c1ccc(N(C(N)=O)c2c(F)cccc2F)nc1-c1ccc(F)cc1F [VX-702]; settings: top dose 2 µM; top dose inferred
# Protocol: as §1
# BMS-536924 = compound: Cc1cc(N2CCOCC2)cc2[nH]c(-c3c(NC[C@@H](O)c4cccc(Cl)c4)cc[nH]c3=O)nc12 [BMS-536924]; settings: top dose 4 µM; screen: GDSC drug entry 1091; top dose inferred
# Protocol: as §1
# [1] = top dose 5 µM, screen: GDSC drug entry 1017, top dose inferred
# [2] = top dose 10 µM, screen: GDSC drug entry 1495
Cell Line,AUC (Olaparib; [1]),IC50 (Olaparib; [1]) [µM],AUC (Shikonin),IC50 (Shikonin) [nM],AUC (SB-525334),IC50 (SB-525334) [µM],AUC (BIRB 0796),IC50 (BIRB 0796) [µM],AUC (Wee1 inhibitor 681640),IC50 (Wee1 inhibitor 681640) [nM],AUC (HG-5-113-01),IC50 (HG-5-113-01) [µM],AUC (VX-702),IC50 (VX-702) [nM],AUC (BMS-536924),IC50 (BMS-536924) [µM],AUC (Olaparib; [2]),IC50 (Olaparib; [2]) [µM]
"KYSE-140 (oesophagus, adherent)",0.984,> 5,0.32,292,0.943,> 20,0.933,> 10,0.86,> 2000,0.919,> 10,0.984,> 2000,,,,
"LoVo (large intestine, adherent)",,,0.55,1370,0.987,> 20,0.973,> 10,0.838,1370,0.781,4.19,0.987,> 2000,0.907,> 4,,
"MHH-ES-1 (Ewing sarcoma, adherent)",,,0.425,625,0.602,2.37,0.933,> 10,0.979,> 2000,0.629,1.41,0.966,> 2000,0.766,1.46,,
"MKN28 (stomach, adherent)",0.986,> 5,0.415,581,0.942,> 20,0.947,> 10,0.982,> 2000,0.735,2.97,0.986,> 2000,,,,
"NCI-H460 (large cell lung carcinoma, adherent)",,,0.574,1560,0.984,> 20,0.986,> 10,0.978,> 2000,0.801,4.34,0.989,> 2000,0.904,> 4,,
"NCI-H1568 (lung adenocarcinoma, adherent)",,,0.335,308,0.956,> 20,0.936,> 10,0.879,> 2000,0.867,> 10,0.977,> 2000,0.937,> 4,,
"NCI-H1792 (lung adenocarcinoma, adherent)",,,0.819,7960,0.965,> 20,0.989,> 10,0.944,> 2000,0.83,5.45,0.978,> 2000,0.825,2.1,,
"OVCAR-8 (ovary, adherent)",,,0.357,422,0.954,> 20,0.972,> 10,0.826,1040,0.767,3.35,0.985,> 2000,0.986,> 4,,
"QGP-1 (pancreas, adherent)",0.883,> 5,,,0.908,> 20,0.905,> 10,0.98,> 2000,0.889,> 10,0.939,> 2000,0.896,> 4,0.954,> 10
"RCC-ER (kidney, adherent)",0.986,> 5,,,0.986,> 20,0.928,> 10,0.951,> 2000,0.794,5.22,0.985,> 2000,0.871,> 4,0.984,> 10
"SCC90 (head and neck, adherent)",0.981,> 5,0.769,8690,,,0.975,> 10,0.972,> 2000,0.844,> 10,0.981,> 2000,0.907,> 4,0.947,> 10
"SK-MEL-5 (melanoma, adherent)",0.946,> 5,,,0.98,> 20,0.959,> 10,0.975,> 2000,0.824,7.78,0.965,> 2000,0.929,> 4,0.968,> 10
"SK-MG-1 (glioma, adherent)",0.98,> 5,,,0.978,> 20,0.887,> 10,0.97,> 2000,0.854,8,0.981,> 2000,0.97,> 4,0.964,> 10
"SNU-81 (large intestine, adherent)",0.964,> 5,,,0.981,> 20,0.982,> 10,0.982,> 2000,0.768,5.08,0.982,> 2000,0.97,> 4,0.919,> 10
"SNU-407 (large intestine, adherent)",0.949,> 5,,,0.924,> 20,0.979,> 10,0.973,> 2000,0.682,2.22,0.983,> 2000,0.877,> 4,0.902,> 10
"SNU-C5 (large intestine, adherent)",0.981,> 5,,,0.973,> 20,0.958,> 10,0.956,> 2000,0.794,5.13,0.986,> 2000,0.967,> 4,0.954,> 10
"STS-0421 (soft tissue, adherent)",0.949,> 5,0.57,1600,,,0.951,> 10,0.983,> 2000,0.732,3.24,0.982,> 2000,0.756,1.58,0.897,> 10
"YH-13 (glioma, adherent)",0.964,> 5,,,0.976,> 20,0.98,> 10,0.919,> 2000,0.794,4.91,0.983,> 2000,0.97,> 4,0.969,> 10

# IC50 is the fitted dose that halves viability relative to control wells, and lower means more sensitive; where the fit passes the top or lowest dose, that dose stands as a limit. AUC, from the same fit, is the share of area under the viability curve across the 256-fold dose range; values near 1 show little effect. A top dose marked as inferred comes from the curve model; the source does not state it. For some assays here: An entry number marks a drug with two screens in the source, which often give different values.
